Data taken from PubChem BioAssay AID504832 (National Center for Advancing Translational Sciences (NCATS), 2011).
About 18,000 (5.8%) of roughly 310,000 compounds were called active. This list was built around the results that the source calls inconclusive (neither active nor inactive); the mix of calls is not that of the screen. The call rests on the fitted dose curve; in most records, active means well fitted inhibition curve with a large enough effect; inconclusive means small, poorly fitted or top-dose-only effect, or another doubt; inactive means no such curve, though single readings can be large or run the other way. Potencies of inconclusive entries are left out as doubtful fits.

experiment: Primary qHTS for delayed death inhibitors of the malarial parasite plastid, 48 hour incubation; settings: P. falciparum luciferase growth in erythrocytes; series mostly up to 28.7 µM
Procedure, shortened: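 Cell-based growth assay: transgenic P. falciparum expressing firefly luciferase, cultured in red cells within RPMI 1640 containing 0.5% w/v Albumax, 24 mM bicarbonate and gentamycin. A drop in luciferase activity indicates inhibition.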
Potency means the concentration at half of the fitted maximal effect; tags describe the fitted curve by direction and shape.

Structure (SMILES)	Potency
COc1ccc(/C=C/C(=O)c2ccc(C(=O)/C=C/c3ccc(OC)c(OC)c3)cc2)cc1OC	inconclusive [inhibitor, partial curve, poor fit]
CCCCOCCCNC(=O)CC(C)c1ccccc1 (centres undefined)	inconclusive [inhibitor, single point]
CC1CCCCC1NCC#CCOc1ccc(Cl)cc1 (centres undefined)	inactive
CCN(CC)c1ccc(C(=O)N/N=C(\C)c2cccnc2)cc1	inconclusive [inhibitor, partial curve, poor fit]
O=C(Nc1ccncc1)c1cccc2ccccc12	inconclusive [inhibitor, single point]
COc1ccc(NC(=O)C2CCC(CNC(=O)[C@@H]3Cc4ccccc4CN3)CC2)cc1 (some centres undefined)	inconclusive [inhibitor, partial curve]
N#C/C(=C\C=C\c1ccccc1)C(=O)NCc1ccco1	inconclusive [inhibitor, single point]
COc1cc2[nH]c(=O)n(CCCC(=O)NCCc3ccccc3)c(=O)c2cc1OC	inconclusive [inhibitor, single point]
COc1ccccc1/C=C/C(=O)OCC(=O)Nc1c(F)cccc1F	inconclusive [inhibitor, single point]
c1cncc(-c2nc(NCc3cccs3)c3ccccc3n2)c1	inconclusive [inhibitor, single point]
CCCn1c2ccccc2c2nc3ccccc3nc21	inconclusive [inhibitor, partial curve, poor fit]
c1ccc2oc(-c3[nH]ncc3CN(Cc3ccncc3)CC3CCCO3)cc2c1 (centres undefined)	inconclusive [inhibitor, partial curve]
O=C(O)CCS(=O)(=O)c1cc(Br)cc2c1N(C(=O)C1CC1)CC2	inconclusive [inhibitor, single point]
COc1ccc(OS(=O)(=O)c2ccc(N3C(=O)CCC3=O)cc2)cc1	inactive
CC(Nc1ccc2ccccc2c1)C(=O)N/N=C/c1ccncc1 (centres undefined)	inconclusive [inhibitor, single point]
CCC(C)(C)NC(=O)C(c1ccc(F)cc1)N(Cc1ccco1)C(=O)CCC(=O)Nc1ccccn1 (centres undefined)	inconclusive [inhibitor, partial curve]
CCOC(=O)C1=C(O)/C(=C/c2ccc(OCC(=O)Nc3ccc(C)cc3)cc2)N=C1C	inconclusive [inhibitor, partial curve, poor fit]
Cc1ccc(S(=O)(=O)NC(CC(C)C)C(=O)Nc2ccncc2)cc1 (centres undefined)	active: 5.22 µM
OC(CN1CCN(c2ccccn2)CC1)Cn1c2ccccc2c2ccccc21 (centres undefined)	inconclusive [inhibitor, single point]
CCOC(=O)Cc1nn(Cc2nc(-c3ccc(C#N)cc3)cs2)c(=O)c2ccccc12	inconclusive [inhibitor, single point]
COc1cccc(CNC(=O)c2ccccc2NC(=O)C2=C(C)OCCS2)c1	inconclusive [inhibitor, single point]
CCOC(=O)/C(CCCN(CC)CC)=N\O	inconclusive [inhibitor, full curve]

Structure (SMILES)	Potency
COc1ccc2nccc(/C=C/c3ccnc4ccc(OC)cc34)c2c1	active: 3.29 µM
O=C(NC12CC3CC(CC(C3)C1)C2)c1cncc(O)c1	inconclusive [inhibitor, single point]
COc1ccc(CN(C)CC(=O)Nc2ccccc2C(F)(F)F)cc1	inactive
COc1cccc(-n2c(N)c(C(=O)Nc3c(C)n(C)n(-c4ccccc4)c3=O)c3nc4ccccc4nc32)c1	inconclusive [inhibitor, partial curve]
COc1ccc(S(=O)(=O)N2CCC(C(=O)Nc3ccccc3N3CCCC3)CC2)cc1OC	inconclusive [inhibitor, partial curve]
Fc1ccc(/C=C2\CCCC3=C2NC(=S)NC3c2ccc(F)cc2)cc1 (centres undefined)	inconclusive [inhibitor, single point]
CCN(CC)S(=O)(=O)c1cc(NC(=O)C(C)N2CCN(c3ccccn3)CC2)ccc1C (centres undefined)	active: 11.7 µM
Clc1nc(-c2cccnc2)nc2scc(-c3ccccc3)c12	active: 11.7 µM
CCOC(=O)C1(Cc2ccccc2Cl)CCN(C(=O)c2cnccn2)CC1	inactive
Cc1ccn2c(C(=O)N/N=C\c3ccc4c(c3)OCO4)c(C)nc2c1	inactive
CCN(CC)c1ccc(/C=N/NC(=O)c2ccc3c(c2)OCCO3)cc1	inconclusive [inhibitor, partial curve, poor fit]
COC(=O)c1c(-c2cccnc2)csc1NC(=O)c1ccc2c(c1)OCO2	inactive
COc1cc(NC(=O)N[C@@H](Cc2ccccc2)C(=O)O)cc(OC)c1	inactive
COc1ccc(-c2csc(NC3=NCCCCC3)n2)cc1	inactive
Cc1ccc(S(=O)(=O)N2CCCN(C(=O)c3cc4ccccc4[nH]3)CC2)cc1	inconclusive [inhibitor, partial curve, poor fit]
Cc1ccc(OCC(=O)NNC(=O)C2CCN(c3ncnc4sc(C)c(C)c34)CC2)cc1	inconclusive [inhibitor, partial curve, poor fit]
CC(=O)c1c(C)[nH]c(C(=O)Nc2cccc(C(F)(F)F)c2)c1C	active: 4.15 µM
CC(C(=O)NC1C(=O)N2C(C(=O)O)=C(CSc3nnnn3C)CSC12)n1cc(Cl)cn1 (centres undefined)	inactive
COc1ccccc1CC1C(=O)C2CCN1CC2 (centres undefined)	inactive
COc1ccc(C(=O)Nc2cccc(-c3cc4ccccc4oc3=O)c2)cc1[N+](=O)[O-]	active: 13.1 µM
CCC(C)C(NC(=O)c1ccccc1NC(=O)c1ccco1)C(=O)NNC(=O)c1ccncc1 (centres undefined)	active: 10.4 µM
Cc1nc(N2N=C(c3ccc(Cl)cc3)CC2c2ccco2)sc1C(=O)N(C)C (centres undefined)	inconclusive [inhibitor, single point]
